Data on six molecules can be found in PubChem BioAssay AID192 (DTP/NCI, 2004).

Inconclusive results and toxic doses are left out. A number of entries come with more than one value. The list is limited to them. The source may hold further records. The values listed for one entry differ for a reason that is not stated; some may be repeats, others may stem from another dose, organism or construct than stated. Brackets tell where a record comes from. The letters are not those of the source and start again with each entry.

In the experiment the test system is BDF1 mice, B16 melanoma ip, median survival T/C. Put plainly: NCI In Vivo Anticancer Drug Screen. Data for tumor model B16 Melanoma (intraperitoneal) in B6D2F1 (BDF1) mice. The following applies: endpoint: median survival time, higher = longer survival. As to the method: The antitumor activity of compounds was measured in mice bearing transplantable tumors. Survival or tumor size were measured and the results are expressed as the measurement made in the treated group (T) divided by the measurement made in the vehicle treated control group (C). The tumor model used in this assay is B16 Melanoma (intraperitoneal) in B6D2F1 (BDF1) mice

Where [1] appears, read: dose: 5.0 mg/kg/injection, schedule: Q01DX001 (ip), vehicle: water.

On to `COc1cccc2c1C(=O)c1c(O)c3c(c(O)c1C2=O)C[C@@](O)(C(C)=O)C[C@@H]3OC1CC(N)C(O)C(C)O1` (some centres not stated), for which, for the setting “dose: 0.25 mg/kg/injection, schedule: Q04DX003 (ip), vehicle: saline”, the T/C is 119 % of control and 186 % of control.

With `CCCCNC(C)C1(O)Cc2c(O)c3c(c(O)c2C(OC2CC(N)C(O)C(C)O2)C1)C(=O)c1c(OC)cccc1C3=O` (configuration not stated), the T/C (dose: 25.0 mg/kg/injection, schedule: Q01DX001 (ip), vehicle: water) is 104 % of control and 178 % of control.

`COc1cccc2c1C(=O)c1c(O)c3c(c(O)c1C2=O)C[C@@](O)(/C(C)=N\NC(=O)CO)C[C@@H]3OC1CC(N)C(O)C(C)O1` (some centres not stated): the T/C under setting [1] is 119 % of control and 154 % of control.

Turning to `CC[C@]12CN3CCc4c([nH]c5ccccc45)[C@@](C(=O)OC)(c4cc5c(cc4OC)N(C)[C@H]4[C@@](O)(C(=O)OC)[C@H](OC(C)=O)[C@]6(CC)C=CCN7CC[C@]54[C@@H]76)CC(C3)[C@H]1O2` (some centres not stated), the T/C (dose: 1.5 mg/kg/injection, schedule: Q01DX009 (ip), vehicle: saline) is 119 % of control [sample A] and 114 % of control, 176 % of control [sample B].

As to `O=NN(CCCl)C(=O)NCCCl`, for the setting “dose: 10.0 mg/kg/injection, schedule: Q04DX003 (ip), vehicle: saline + alcohol”, the T/C was 118 % of control and 187 % of control.

For `COc1cccc2c1C(=O)c1c(O)c3c(c(O)c1C2=O)C[C@@](O)(/C(CO)=N/NC(=O)c1ccc(Cl)c(Cl)c1)C[C@@H]3OC1CC(N)C(O)C(C)O1` (some centres not stated), the T/C by setting is: (dose: 2.5 mg/kg/injection, schedule: Q01DX001 (ip), vehicle: water) 110 % of control and 160 % of control; under setting [1], 116 % of control and 156 % of control.
